The record followed here is publication PMC9068801.

Chains of the proteins cited; added tags and fusions are not shown.
UniProt Q39026: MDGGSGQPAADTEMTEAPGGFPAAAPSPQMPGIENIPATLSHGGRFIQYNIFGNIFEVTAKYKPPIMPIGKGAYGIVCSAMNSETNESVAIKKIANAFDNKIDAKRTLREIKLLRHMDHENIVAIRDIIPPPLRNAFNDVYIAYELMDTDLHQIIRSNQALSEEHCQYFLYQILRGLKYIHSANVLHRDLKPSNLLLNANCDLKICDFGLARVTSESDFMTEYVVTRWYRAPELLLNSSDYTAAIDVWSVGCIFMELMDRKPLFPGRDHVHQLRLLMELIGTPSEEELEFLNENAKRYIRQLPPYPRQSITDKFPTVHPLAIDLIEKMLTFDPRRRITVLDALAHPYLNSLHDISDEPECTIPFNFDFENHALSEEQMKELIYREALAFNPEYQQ
UniProt Q9LR78: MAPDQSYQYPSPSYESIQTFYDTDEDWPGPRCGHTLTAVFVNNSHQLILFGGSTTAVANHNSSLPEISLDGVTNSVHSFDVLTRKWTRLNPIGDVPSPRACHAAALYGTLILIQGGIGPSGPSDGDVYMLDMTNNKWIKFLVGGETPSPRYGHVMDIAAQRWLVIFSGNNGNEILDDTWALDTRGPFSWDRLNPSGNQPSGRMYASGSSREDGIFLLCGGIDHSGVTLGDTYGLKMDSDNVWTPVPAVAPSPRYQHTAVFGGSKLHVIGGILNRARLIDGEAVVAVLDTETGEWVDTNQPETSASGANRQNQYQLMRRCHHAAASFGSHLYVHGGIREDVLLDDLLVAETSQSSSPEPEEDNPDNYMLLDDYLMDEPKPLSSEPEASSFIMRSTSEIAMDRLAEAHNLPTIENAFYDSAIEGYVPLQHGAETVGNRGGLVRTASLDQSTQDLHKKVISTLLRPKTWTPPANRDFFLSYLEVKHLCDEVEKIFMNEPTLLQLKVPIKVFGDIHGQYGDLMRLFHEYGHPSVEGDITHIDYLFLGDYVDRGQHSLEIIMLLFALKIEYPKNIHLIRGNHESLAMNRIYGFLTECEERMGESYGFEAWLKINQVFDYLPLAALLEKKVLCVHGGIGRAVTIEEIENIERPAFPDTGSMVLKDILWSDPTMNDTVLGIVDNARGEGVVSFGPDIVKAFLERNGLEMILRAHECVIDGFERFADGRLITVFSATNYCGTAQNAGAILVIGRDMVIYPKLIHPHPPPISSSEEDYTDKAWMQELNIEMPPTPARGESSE

Experiment [1] deals with T1, SCRM-cYFP (Arabidopsis thaliana) (UniProt Q9LSE2).
T1 sequence: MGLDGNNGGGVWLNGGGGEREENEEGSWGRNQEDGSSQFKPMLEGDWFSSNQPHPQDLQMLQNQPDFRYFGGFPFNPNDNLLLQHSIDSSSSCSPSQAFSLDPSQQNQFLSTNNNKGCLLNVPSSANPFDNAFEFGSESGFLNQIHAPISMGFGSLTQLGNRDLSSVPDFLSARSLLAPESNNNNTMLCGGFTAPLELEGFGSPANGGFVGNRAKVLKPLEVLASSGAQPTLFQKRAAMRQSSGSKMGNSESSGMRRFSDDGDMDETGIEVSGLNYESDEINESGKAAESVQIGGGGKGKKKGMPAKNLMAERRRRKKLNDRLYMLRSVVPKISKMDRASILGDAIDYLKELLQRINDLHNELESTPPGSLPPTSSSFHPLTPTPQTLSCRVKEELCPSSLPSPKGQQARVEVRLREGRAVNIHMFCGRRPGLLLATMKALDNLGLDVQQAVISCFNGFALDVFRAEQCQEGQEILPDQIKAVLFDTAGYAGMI
The experiment is described as follows: split reporter; BiFC with nYFP and cYFP fusions transiently co-expressed in N. benthamiana leaf epidermal cells; confocal microscopy 3-4 days after infiltration.

Experiment [2] addresses cYFP-tagged MPK6 (Arabidopsis thaliana) (UniProt Q39026). The description is as above.
The target in experiment [3] is T2, SPCH-cYFP (Arabidopsis thaliana) (UniProt Q700C7).
T2 sequence: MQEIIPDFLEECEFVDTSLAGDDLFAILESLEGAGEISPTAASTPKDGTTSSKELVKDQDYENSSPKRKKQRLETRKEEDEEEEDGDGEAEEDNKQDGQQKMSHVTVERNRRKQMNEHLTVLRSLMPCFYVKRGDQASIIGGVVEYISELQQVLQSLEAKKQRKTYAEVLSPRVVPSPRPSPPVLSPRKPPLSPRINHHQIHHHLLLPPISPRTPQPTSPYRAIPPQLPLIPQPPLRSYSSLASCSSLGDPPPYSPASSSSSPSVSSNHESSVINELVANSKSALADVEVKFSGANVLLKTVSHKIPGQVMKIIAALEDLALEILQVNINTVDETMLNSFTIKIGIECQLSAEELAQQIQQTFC
The description is as above.

Experiment [4] addresses BSU1 (bri1 Suppressor 1) phosphatase, Gal4 DNA-binding domain fusion (Arabidopsis thaliana) (UniProt Q9LR78). Kind of experiment: two-hybrid; Gal4 system in S. cerevisiae AH109; BSL proteins as bait in pGBKT7 (BD-), partners as prey in pGADT7 (AD-); tested on SD/-Leu/-Trp/-His with 1 mM 3-AT; 3 days at 30 °C.
Experiment [5] has as its target T3, BSL1 (BSU1-like 1 Ser/Thr protein phosphatase), Gal4 DNA-binding domain fusion (Arabidopsis thaliana) (UniProt Q8L7U5).
T3 sequence: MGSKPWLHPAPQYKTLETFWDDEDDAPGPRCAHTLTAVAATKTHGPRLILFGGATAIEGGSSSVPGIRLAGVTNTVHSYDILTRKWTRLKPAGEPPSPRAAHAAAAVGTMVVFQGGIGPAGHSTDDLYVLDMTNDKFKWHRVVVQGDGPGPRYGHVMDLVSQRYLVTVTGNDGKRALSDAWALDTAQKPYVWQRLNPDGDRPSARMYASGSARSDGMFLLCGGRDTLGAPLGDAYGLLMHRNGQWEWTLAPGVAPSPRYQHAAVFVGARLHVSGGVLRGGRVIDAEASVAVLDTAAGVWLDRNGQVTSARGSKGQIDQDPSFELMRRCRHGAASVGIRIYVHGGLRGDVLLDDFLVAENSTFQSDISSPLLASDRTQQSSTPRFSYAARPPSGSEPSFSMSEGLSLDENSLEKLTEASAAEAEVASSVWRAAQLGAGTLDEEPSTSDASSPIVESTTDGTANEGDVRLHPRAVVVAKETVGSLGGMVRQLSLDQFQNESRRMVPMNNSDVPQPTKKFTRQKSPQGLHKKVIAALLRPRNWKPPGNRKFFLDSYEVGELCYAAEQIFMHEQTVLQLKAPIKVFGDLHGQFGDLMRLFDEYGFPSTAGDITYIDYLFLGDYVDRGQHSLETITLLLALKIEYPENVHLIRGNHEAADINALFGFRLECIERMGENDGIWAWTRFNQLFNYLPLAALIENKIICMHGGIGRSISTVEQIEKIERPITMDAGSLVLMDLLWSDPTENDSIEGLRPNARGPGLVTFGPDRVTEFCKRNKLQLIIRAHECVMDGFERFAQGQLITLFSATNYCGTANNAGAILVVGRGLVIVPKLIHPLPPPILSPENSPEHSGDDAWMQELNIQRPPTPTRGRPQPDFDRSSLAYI
The description is as above.

In experiment [6] the target is T4, BSL3 (BSU1-like 3 Ser/Thr protein phosphatase), Gal4 DNA-binding domain fusion (Arabidopsis thaliana) (UniProt Q9SHS7).
T4 sequence: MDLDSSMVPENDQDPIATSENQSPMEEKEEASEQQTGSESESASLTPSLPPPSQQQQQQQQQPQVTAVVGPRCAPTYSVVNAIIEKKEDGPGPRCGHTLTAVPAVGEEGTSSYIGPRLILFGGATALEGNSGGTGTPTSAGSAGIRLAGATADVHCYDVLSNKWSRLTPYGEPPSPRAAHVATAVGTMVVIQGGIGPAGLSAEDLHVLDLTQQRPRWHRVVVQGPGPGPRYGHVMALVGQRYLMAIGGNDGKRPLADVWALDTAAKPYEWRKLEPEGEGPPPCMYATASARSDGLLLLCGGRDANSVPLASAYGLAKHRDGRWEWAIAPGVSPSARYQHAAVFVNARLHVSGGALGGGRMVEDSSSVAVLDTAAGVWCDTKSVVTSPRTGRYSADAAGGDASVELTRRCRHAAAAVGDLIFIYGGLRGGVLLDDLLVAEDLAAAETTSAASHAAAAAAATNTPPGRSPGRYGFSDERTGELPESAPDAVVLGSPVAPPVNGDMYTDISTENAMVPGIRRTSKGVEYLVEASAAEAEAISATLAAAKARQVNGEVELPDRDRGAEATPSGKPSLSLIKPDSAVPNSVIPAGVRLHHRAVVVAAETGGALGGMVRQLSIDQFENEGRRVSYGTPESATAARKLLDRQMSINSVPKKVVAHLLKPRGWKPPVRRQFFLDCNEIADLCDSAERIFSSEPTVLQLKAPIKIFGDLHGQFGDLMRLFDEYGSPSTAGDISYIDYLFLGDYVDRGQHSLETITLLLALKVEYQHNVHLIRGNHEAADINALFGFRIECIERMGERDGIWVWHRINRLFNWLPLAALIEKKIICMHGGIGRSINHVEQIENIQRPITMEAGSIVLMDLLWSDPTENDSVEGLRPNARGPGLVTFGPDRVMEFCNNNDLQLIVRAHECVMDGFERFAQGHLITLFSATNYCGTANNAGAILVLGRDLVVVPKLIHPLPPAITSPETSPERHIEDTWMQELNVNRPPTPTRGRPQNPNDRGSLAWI
The description is as above.

Experiment [7] has as its target T5, BSL2 (BSU1-like 2 Ser/Thr protein phosphatase), Gal4 DNA-binding domain fusion (Arabidopsis thaliana) (UniProt Q9SJF0).
T5 sequence: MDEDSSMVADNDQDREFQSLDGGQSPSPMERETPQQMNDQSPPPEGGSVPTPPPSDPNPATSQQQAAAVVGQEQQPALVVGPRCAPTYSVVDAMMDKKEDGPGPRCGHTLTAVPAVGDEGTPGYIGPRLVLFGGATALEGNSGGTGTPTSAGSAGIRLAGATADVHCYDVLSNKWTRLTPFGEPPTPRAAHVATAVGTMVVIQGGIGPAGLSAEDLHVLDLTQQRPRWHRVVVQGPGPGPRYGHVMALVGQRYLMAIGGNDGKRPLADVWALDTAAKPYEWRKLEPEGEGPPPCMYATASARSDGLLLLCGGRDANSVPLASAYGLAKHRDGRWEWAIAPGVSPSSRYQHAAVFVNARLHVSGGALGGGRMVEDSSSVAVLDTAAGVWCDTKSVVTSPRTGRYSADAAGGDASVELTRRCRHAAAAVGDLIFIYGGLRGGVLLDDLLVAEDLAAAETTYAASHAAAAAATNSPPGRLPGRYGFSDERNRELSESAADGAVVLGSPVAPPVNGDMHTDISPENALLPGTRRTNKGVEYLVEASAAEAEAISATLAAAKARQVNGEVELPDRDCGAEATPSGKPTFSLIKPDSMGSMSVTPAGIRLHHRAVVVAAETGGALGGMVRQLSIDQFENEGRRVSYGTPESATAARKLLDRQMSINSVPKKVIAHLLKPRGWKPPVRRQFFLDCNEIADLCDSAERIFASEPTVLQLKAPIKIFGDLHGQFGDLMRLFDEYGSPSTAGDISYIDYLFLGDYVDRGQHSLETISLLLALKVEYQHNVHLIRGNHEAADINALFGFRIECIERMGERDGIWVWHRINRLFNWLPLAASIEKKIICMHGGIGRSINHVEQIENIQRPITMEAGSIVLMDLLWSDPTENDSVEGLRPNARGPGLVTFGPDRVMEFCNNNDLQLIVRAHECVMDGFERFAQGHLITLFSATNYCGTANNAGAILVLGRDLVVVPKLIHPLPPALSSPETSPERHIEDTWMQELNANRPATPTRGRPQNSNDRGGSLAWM
The experiment is described as above.

For experiment [8], the target named is MPK6-YFP (Arabidopsis thaliana) (UniProt Q39026). Kind of experiment: co-IP; YFP or MPK6-YFP co-expressed with BSL2-FLAG or BSU1-FLAG in N. benthamiana leaves; total protein extract on GFP-Trap agarose, 4 °C, 3 h; washed three times; detected by anti-FLAG.

Results are given in words; binding and its absence hold for the method and conditions named. For some assays here: In cells and extracts the contact can be indirect. Some binding calls cover weakened binding; strength is not graded here. For some assays here: Tags and fused reporters may be left off the sequences shown.

In the case of “nYFP-tagged BSU1 (from UniProt Q9LR78 1-793) (enzyme)”, the binding entry is given as “no binding” in experiment [1], “binds” in experiment [2] and “no binding” in experiment [3].

Consider “MAPK 6 (MPK6), Gal4 activation domain fusion (from UniProt Q39026 1-395) (enzyme)”, for which the binding entry was “binds” in experiment [4], “no binding” in experiment [5], “binds” in experiment [6] and “binds” in experiment [7].

With “BSU1-FLAG (from UniProt Q9LR78 1-793) (enzyme)”, the binding entry in experiment [8] is recorded as “binds”.
